In paper PMC9986639, “Mapping protein direct interactome of oxidoreductases with small molecular chemical cross-linkers in live cells” (Redox Biology, 2023):

Molecular target: T1, Tpx-Flag-6×His (thiol peroxidase) (UniProt P0A862 1-168)
T1 construct: thiol peroxidase (Tpx); active-site Cys61; Plasmid pET-22b-Tpx-Flag-6×His; source: E. coli BL21(DE3), purified (Ni-NTA)
T1 sequence (looked up): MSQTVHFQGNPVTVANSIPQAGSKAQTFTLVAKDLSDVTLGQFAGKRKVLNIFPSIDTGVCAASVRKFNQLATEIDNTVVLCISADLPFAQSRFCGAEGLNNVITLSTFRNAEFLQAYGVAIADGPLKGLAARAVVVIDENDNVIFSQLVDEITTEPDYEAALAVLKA
Assay: cross-linking; in vitro: 10 μM Trx1 and 10 μM Tpx or PAPR in Hepes buffer pH 8.0, 0.5 mM BVSB or PDES, RT, 4 h, stopped with 100 mM DTT; Western blot and MS of cross-linked peptides (trypsin and Glu-C)
Details: both partners purified

B1: Trx1-6×His (thioredoxin 1) (enzyme)
chain: not shown
notes: thioredoxin 1 (Trx1) of E. coli; active-site Cys33; also called His-tagged Trx1; Trx1 WT; source: E. coli BL21(DE3), purified (Ni-NTA) from pET-22b; also co-expressed from pRSF-Duet1 in live BL21(DE3) cells
B1: binds.
